According to PubChem BioAssay AID1508642 (National Center for Advancing Translational Sciences (NCATS), 2021):
About 200 (0.47%) of roughly 43,000 compounds were called active. Inconclusive results, whose numbers are uncertain, are shown with a selection of clear calls. The call rests on the fitted dose curve; in most records, active means well fitted cell-killing curve with a large enough effect; inconclusive means small, poorly fitted or top-dose-only effect, or effect the other way; inactive means flat fitted curve, though single readings scatter. Potencies beside an inconclusive call are fits to weak or partial responses and may not hold up.

Assay: Cell viability qHTS assay in S16 Pmp22-F2sN cells; further: nearly all actives have a fitted effect of over 65% in size
Conditions: S16 Pmp22-F2sN Schwann cells viability, CellTiter-Glo, 24 h; activity change, negative = cytotoxicity: at 57.5 µM (top of the series)
Procedure, shortened: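 Used to flag compounds lowering reporter output through toxicity, this quantitative HTS measures ATP-based CellTiter-Glo luminescence in S16 Pmp22-F2sN Schwann cells after 24 h compound exposure at 37C.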
On the % scale 0 is the no-effect control and ±100 the full control effect; potency means the concentration at half of the fitted maximal effect; tags describe the fitted curve by direction and shape.

Q: With `COc1ccc(-c2cnc(C)o2)cc1S(=O)(=O)Nc1c(C)cc(C)cc1C` as the molecule, how does the Potency read?
A: The Potency was inconclusive: 25.1 µM [cytotoxic, single point].

Q: Which Potency does the source give for `Cc1ccc(Cl)cc1N1CCN(C(=O)c2c(C)oc3ncnc(N4CCCCC4)c23)CC1` here?
A: The Potency was inconclusive: 39.8 µM [cytotoxic, partial curve, poor fit].

Q: With `Cc1cccc(-c2nnn3c2nc(NCc2ccc4c(c2)OCO4)c2ccccc23)c1` as the molecule, how does the “activity change, negative = cytotoxicity” value read?
A: Its value is inactive: -0.114%.

Q: Which “activity change, negative = cytotoxicity” value does the source give for `CCOC(=O)c1sc2ccccc2c1S(=O)(=O)N1CCN(c2cccc(C)c2)C(C)C1` (stereo not given) here?
A: Its value is inactive: -18.9%.

Q: With `COc1ccc2c(c1)CC(C(=O)NCCCN1CCN(c3cccc(Cl)c3)CC1)CO2` (stereo not given) as the molecule, how does the “activity change, negative = cytotoxicity” value read?
A: The value was inactive: -19.7%.

Q: For `CC(C)C1C(=O)Nc2ccc(S(=O)(=O)NCCc3ccc(Cl)cc3)cc21` (stereo not given), which Potency is on record?
A: The Potency was inconclusive: 39.8 µM [cytotoxic, single point].

Q: With `Cc1ccccc1Nc1nn2c(=O)c3ccc(C(=O)NCCc4ccc(Cl)cc4)cc3nc2s1` as the molecule, how does the Potency read?
A: The Potency was inconclusive: 20 µM [cytotoxic, single point].

Q: For `CCOc1ccc(Nc2c(S(=O)(=O)c3ccc(Cl)cc3)cnc3ccc(OCC)cc23)cc1`, which Potency is on record?
A: The Potency was inconclusive: 39.8 µM [cytotoxic, partial curve, poor fit].

Q: For `COc1ccc(CNc2cc(-c3ccc(OC)cc3)nc3nncn23)cc1`, which Potency is on record?
A: The Potency was inconclusive: 28.2 µM [cytotoxic, single point].

Q: For `COc1ccc(Cn2c(SCC(N)=O)nc3c(sc4ccccc43)c2=O)cc1`, which Potency is on record?
A: The Potency was inconclusive: 3.16 µM [rising, full curve, poor fit].

Q: For `O=C(Cc1ccc(NC(=O)N2CCCCc3ccccc32)cc1)NCc1ccccc1`, which Potency is on record?
A: Its Potency is inconclusive: 2 µM [rising, partial curve, poor fit].

Q: With `Cc1ccc2[nH]c(CSc3nnc(COc4ccccc4C)n3C)cc(=O)c2c1` as the molecule, how does the Potency read?
A: Its Potency is inconclusive: 39.8 µM [cytotoxic, partial curve, poor fit].

Q: Which Potency does the source give for `Cc1ccc(S(=O)(=O)c2nc(S(C)(=O)=O)sc2NCc2ccccc2)cc1` here?
A: Its Potency is inconclusive: 25.1 µM [cytotoxic, single point].

Q: For `COc1cccc(CNC(=O)CN2C(=O)COc3ccc(S(=O)(=O)Nc4ccccc4)cc32)c1`, which “activity change, negative = cytotoxicity” value is on record?
A: Its value is inactive: 5.63%.

Q: For `Cc1cc(C)cc(NC(=O)C2CCC(CNS(=O)(=O)c3ccc4c(c3)C(C)(C)C(=O)N4C)CC2)c1` (stereo not given), which Potency is on record?
A: The Potency was inconclusive: 35.5 µM [cytotoxic, single point].

Q: With `COc1ccc(CCNC(=O)c2c(C)oc3ncn(CC(C)C)c(=O)c23)cc1OC` as the molecule, how does the Potency read?
A: Its Potency is inconclusive: 22.4 µM [cytotoxic, partial curve, poor fit].

Q: With `COc1ccc(C)cc1NC(=O)CSc1ccc(-c2ccccn2)nn1` as the molecule, how does the Potency read?
A: The Potency was inconclusive: 39.8 µM [cytotoxic, single point].

Q: For `CC1CCN(S(=O)(=O)c2ccc3c(c2)N(CC(=O)NC(C)C)C(=O)CO3)CC1`, which “activity change, negative = cytotoxicity” value is on record?
A: Its value is inactive: -0.27%.

Q: For `CCN(CC)CCCNC(=O)c1ccc2c(c1)NC(=O)C(CS(=O)(=O)Cc1cccc(Br)c1)N2` (stereo not given), which “activity change, negative = cytotoxicity” value is on record?
A: Its value is inactive: -2.52%.

Q: Which Potency does the source give for `COc1ccc(C(C)n2c(C)c3c(C)nnc(C)c3c2C)cc1` (stereo not given) here?
A: The Potency was inconclusive: 25.1 µM [cytotoxic, partial curve, poor fit].

Q: With `COc1ccc(S(=O)(=O)N(CC(=O)NCc2ccccc2)c2ccc(C)cc2)cc1OC` as the molecule, how does the Potency read?
A: Its Potency is inconclusive: 14.1 µM [rising, partial curve].

Q: Which Potency does the source give for `CC(C)c1ccc(NC(=O)c2cc(S(=O)(=O)NCc3ccccc3Cl)ccc2F)cc1` here?
A: Its Potency is inconclusive: 20 µM [cytotoxic, single point].

Q: Which Potency does the source give for `N#Cc1c[nH]n2c(NC3CCCC3)c(-c3cccc(Cl)c3)nc12` here?
A: Its Potency is inconclusive: 31.6 µM [cytotoxic, single point].

Q: Which Potency does the source give for `CCOc1cc(C(=O)N2CCc3c([nH]c4ccccc34)C2c2ccccc2)cc(OCC)c1OCC` (stereo not given) here?
A: The Potency was inconclusive: 2 µM [cytotoxic, full curve, poor fit].

Q: For `COc1ccc(-c2n[nH]c3c2C(c2ccc(O)cc2)N(c2ccc(Br)cc2)C3=O)cc1` (stereo not given), which Potency is on record?
A: Its Potency is inconclusive: 25.1 µM [cytotoxic, single point].

Q: For `O=C(NCCc1ccccc1)C(=O)NCC(c1cccnc1)N1CCN(c2ccccc2F)CC1` (stereo not given), which Potency is on record?
A: Its Potency is inconclusive: 28.2 µM [cytotoxic, single point].

Q: Which Potency does the source give for `COc1ccccc1Nc1nn2c(=O)c3ccc(C(=O)NCc4ccc(F)cc4)cc3nc2s1` here?
A: The Potency was active: 14.1 µM.

Q: With `O=C(C1CCC(Cn2c(=O)c3sccc3n(Cc3cccc(F)c3)c2=O)CC1)N1CCCCC1` (stereo not given) as the molecule, how does the Potency read?
A: The Potency was inconclusive: 28.2 µM [cytotoxic, single point].

Q: Which Potency does the source give for `CC(C)CCNC(=O)C1CCN(C(=O)N2CCOc3ccc(Cl)cc32)CC1` here?
A: The Potency was inconclusive: 39.8 µM [cytotoxic, single point].

Q: Which “activity change, negative = cytotoxicity” value does the source give for `Cc1ccc(CNC(=O)C(=O)NCC(c2ccco2)S(=O)(=O)c2cccs2)cc1` (stereo not given) here?
A: Its value is inactive: 6.72%.

Q: Which “activity change, negative = cytotoxicity” value does the source give for `CCN(CC)CCNC(=O)c1ccc2c(c1)NC(=O)C(CS(=O)(=O)Cc1cccc(Br)c1)N2` (stereo not given) here?
A: The value was inactive: 8.54%.

Q: For `Cc1cc2nn(-c3ccc(F)cc3)nc2cc1NC(=O)c1cccc2ccccc12`, which Potency is on record?
A: Its Potency is inconclusive: 0.0891 µM [cytotoxic, full curve, poor fit].

Q: With `O=C(Nc1ccc2oc(-c3cccnc3)nc2c1)c1ccc(-c2ccc(OC(F)(F)F)cc2)o1` as the molecule, how does the Potency read?
A: Its Potency is inconclusive: 11.2 µM [rising, partial curve].

Q: With `CCOc1ccc(C(=O)c2c(N)c(-c3nc(-c4ccc5c(c4)OCO5)cs3)c3ccccn23)cc1` as the molecule, how does the Potency read?
A: The Potency was inconclusive: 20 µM [rising, partial curve, poor fit].

Q: With `COc1cccc(CNC(=O)CSc2c3c(nc4cc(Cl)ccc24)CCCC3)c1` as the molecule, how does the Potency read?
A: The Potency was inconclusive: 39.8 µM [cytotoxic, single point].

Q: For `CC(C)n1cnc(S(=O)(=O)N2CCCC(C(=O)NCc3ccccc3Cl)C2)c1` (stereo not given), which Potency is on record?
A: Its Potency is inconclusive: 10 µM [rising, partial curve].

Q: With `COc1ccccc1N1CCN(c2nc(-c3ccc(C)cc3)nc3ccccc23)CC1` as the molecule, how does the Potency read?
A: Its Potency is inconclusive: 25.1 µM [cytotoxic, partial curve, poor fit].

Q: With `CCOc1ccc(NC(=O)CN(c2ccc(Cl)cc2C)S(=O)(=O)c2ccccc2)cc1` as the molecule, how does the Potency read?
A: The Potency was inconclusive: 28.2 µM [cytotoxic, single point].

Q: With `Cc1ccccc1NC(=O)Cn1c(=O)n(CC2CCC(C(=O)NCCc3ccccc3)CC2)c(=O)c2ccccc21` (stereo not given) as the molecule, how does the “activity change, negative = cytotoxicity” value read?
A: Its value is inactive: 16.1%.

Q: Which Potency does the source give for `COc1ccc(Cl)cc1NC(=O)Cn1c(=O)n(CCC(=O)NCc2ccc3c(c2)OCO3)c(=O)c2ccccc21` here?
A: Its Potency is inconclusive: 39.8 µM [rising, single point].

Q: For `COc1cccc(-n2c(SCC(=O)c3ccc(Cl)cc3)nc3c([nH]c4ccccc43)c2=O)c1`, which Potency is on record?
A: The Potency was inconclusive: 39.8 µM [cytotoxic, single point].

Q: With `CSc1ccc(CNC(=O)c2ccc(NC(=O)c3nsc4ccccc34)cc2)cc1` as the molecule, how does the Potency read?
A: Its Potency is inconclusive: 28.2 µM [cytotoxic, partial curve].

Q: Which Potency does the source give for `COc1cc(OC)c(NS(=O)(=O)c2ccc3c(c2)NC(=O)CCS3)cc1Cl` here?
A: Its Potency is inconclusive: 8.91 µM [cytotoxic, partial curve, poor fit].

Q: For `Cc1c(-c2nsc(NC(=O)c3cccs3)n2)nnn1-c1ccc(Br)cc1`, which Potency is on record?
A: Its Potency is inconclusive: 31.6 µM [cytotoxic, single point].

Q: Which Potency does the source give for `Cc1c(C)n(Cc2ccccc2)c2ccc(C(=O)NCc3ccco3)cc12` here?
A: The Potency was inconclusive: 28.2 µM [cytotoxic, partial curve].

Q: For `COc1cccc(-n2c(SCc3ccccc3C)nc3c([nH]c4ccccc43)c2=O)c1`, which Potency is on record?
A: The Potency was inconclusive: 17.8 µM [rising, single point].

Q: For `O=C(NCCSc1c(-c2ccc(F)cc2)[nH]c2ccccc12)c1ccc(S(=O)(=O)N2CCOCC2)cc1`, which Potency is on record?
A: Its Potency is inconclusive: 28.2 µM [cytotoxic, single point].

Q: Which Potency does the source give for `Cn1c(=O)c2c(nc(NCc3ccccc3)n2Cc2ccccc2Cl)n(C)c1=O` here?
A: Its Potency is inconclusive: 14.1 µM [cytotoxic, single point].

Q: Which “activity change, negative = cytotoxicity” value does the source give for `O=C(CCn1ccc2cc(S(=O)(=O)N3CCCC3)ccc21)NCc1cccc(Br)c1` here?
A: Its value is inactive: -17.2%.

Q: For `COc1cccc(N2CC(NC(=O)c3ccc4c(c3)OCO4)CC2=O)c1` (stereo not given), which “activity change, negative = cytotoxicity” value is on record?
A: The value was inactive: -5.6%.

Q: Which Potency does the source give for `CC(NC(=O)c1ccc(Nc2nc3ccccc3n3nnnc23)cc1)c1ccccc1` (stereo not given) here?
A: Its Potency is inconclusive: 7.94 µM [cytotoxic, full curve, poor fit].

Q: Which Potency does the source give for `Cc1cccc(NS(=O)(=O)c2ccc3[nH]c(=O)ccc3c2)c1C` here?
A: Its Potency is inconclusive: 35.5 µM [cytotoxic, partial curve, poor fit].

Q: Which Potency does the source give for `Cc1oc2ccc(O)c(CN(C)Cc3ccccc3)c2c1C(=O)Nc1cccc(C(F)(F)F)c1` here?
A: Its Potency is inconclusive: 39.8 µM [cytotoxic, single point].

Q: Which Potency does the source give for `COc1cc(NC(=O)Cn2c(=O)oc3cc(S(=O)(=O)N4CCCCCC4)ccc32)cc(OC)c1` here?
A: The Potency was inconclusive: 25.1 µM [cytotoxic, single point].

Q: For `Cc1ccc(-c2nc3cccnc3s2)cc1NC(=O)C(C)C`, which “activity change, negative = cytotoxicity” value is on record?
A: The value was inactive: -3.06%.

Q: With `CC1=Nc2cc(C(=O)NCCc3ccc(Cl)cc3)ccc2Sc2ccc(C)cc21` as the molecule, how does the Potency read?
A: The Potency was inconclusive: 2.51 µM [cytotoxic, full curve].

Q: For `COC(=O)C(Cc1c[nH]c2ccccc12)NC(=O)COc1ccc(Cl)cc1Cl` (stereo not given), which “activity change, negative = cytotoxicity” value is on record?
A: The value was inactive: -1.58%.

Q: Which Potency does the source give for `Cc1ccc(S(=O)(=O)N2CCCc3cc(NS(=O)(=O)c4ccc(F)c(C)c4)ccc32)cc1` here?
A: Its Potency is inconclusive: 39.8 µM [cytotoxic, single point].

Q: Which Potency does the source give for `CC(C)Oc1ccc(CNC(=O)CCCn2c(=O)c3cccn3c3ccccc32)cc1` here?
A: The Potency was inconclusive: 31.6 µM [cytotoxic, partial curve, poor fit].

Q: With `CCCS(=O)(=O)Nc1cc(-c2cn3cccc(C)c3n2)ccc1C` as the molecule, how does the Potency read?
A: The Potency was inconclusive: 28.2 µM [cytotoxic, single point].
